Sequences and labels used below:
B1: chr18:13746249:13746250:+_ENSG00000101654_ENST00000262173|hu_hu|motif|central (ssRNA)
RNA: GGGAGUUCUACAGUCCGACGAUCAUUUUCAUUGUUCUUAAUCUUUUCUUCGUAGAAUUCCAGAAAUGUUUUUUUGUAGACGGGUUUCAUAUUGUACUUCUUUGCCAUUUCAUUUAGCAAUGGAAAAUAGACCAAGAAUUCAGGCAACAGAGGAUUGAGCAUCA
B2: chr11:111909998:111909999:+_ENSG00000150768_ENST00000533297|hu_hu|motif|central (ssRNA)
RNA: GGGAGUUCUACAGUCCGACGAUCACCCUUCCCUUUGGUCCAGCAGGAGUAGCUGGGCAGGGUGCUGAAGGUGUAGGAGCGGAAGGCUGGGGAGUUGGAGGAACAGCGGCCACCGGGGGUGGGGUAGGUGGUGGCACUUGUGGUCAACAGAGGAUUGAGCAUCA
B3: chr3:179287964:179287965:+_ENSG00000136518_ENST00000429709|hu_hu|hu_hu_hu_mus_True|8_48 (ssRNA)
RNA: GGGAGUUCUACAGUCCGACGAUCCUUGAGUGGUGAGAUGGCCUCCAUGUUCUCCCUGGGCACGCGGAGGGCAUUGGUGUCUAUGUAGUAGGUGGGACCGCCCUGCUUGCCUUUGUCACCAUCAAUCUCCAUUAAUGUACUUCCCAACAGAGGAUUGAGCAUCA
B4: chr8:104081237:104081238:+_ENSG00000155097_ENST00000518738|hu_hu|motif|central (ssRNA)
RNA: GGGAGUUCUACAGUCCGACGAUCAAUGGAAUUAAUGCAUACCAUGAUAUCAAUAAGGAAGAGACCUUCUCUUUAAAUAAACGGUUUUGUUUAUAAAUAAACUCUGAUUUUUUUAGUACACAUUUACAGACCUGAUCAAUAAAACAACAGAGGAUUGAGCAUCA
B5: chr3:148802587:148802588:-_ENSG00000071794_ENST00000310053|hu_mus|hu_hu_hu_mus_False|78_78 (ssRNA)
RNA: GGGAGUUCUACAGUCCGACGAUCUCCAACAACUUGUCCUCUCAUAGUUCCAAAUAAAACGGAAUCUUGCUCUUCAUCACUCGUUAGGAAGUCAUCUGGAGGAAUAAUGUCUUGGAAUUCAAAAUGUGGCAAGAAAGUUGAGUACAACAGAGGAUUGAGCAUCA
B6: chr1:66480114:66480115:+_ENSMUSG00000015222_ENSMUST00000024639|mus_hu|mus_mus_mus_hu_True|98_108 (ssRNA)
RNA: GGGAGUUCUACAGUCCGACGAUCUGGCCUGUGACGGAUGUUCUUUAGAGAGCCACAUUUGGAUGUCACAUGGCUUAGGUCUAUUUUCUUGGUAACAAUUUGUACCUGCCCCCCUUUAGGCUGGUAUUUGAUGUUGUCUGUUGACAACAGAGGAUUGAGCAUCA
B7: chr2:198351390:198351391:-_ENSG00000144381_ENST00000345042|hu_hu|hu_hu_hu_mus_False|48_68 (ssRNA)
RNA: GGGAGUUCUACAGUCCGACGAUCUCAUUCCCACCCUCCACAGAAAGGCUGCUUCUGAACUCUCAUGGUGGUGGCAAGCGCUACAGUCCUGAUUUUAACAGAACAGUAGAGAUGCCUCAGUGAUUUAAGUUGAAAGCAGGACACCAACAGAGGAUUGAGCAUCA
B8: chr11:97546686:97546687:+_ENSMUSG00000038437_ENSMUST00000044730|mus_hu|FALSE|FALSE (ssRNA)
RNA: GGGAGUUCUACAGUCCGACGAUCUACGAACUGCCCUUCGUACAAAUAACAUCCGUUAUACAAAGAUACAAGAUCCGGGUUAUGCACAAUUCCAGGCUUGGAGGUGGCAGGGGGGCAUCGCCUUUGGGCUGAGGAUAUCAAGGUCAACAGAGGAUUGAGCAUCA
B9: chr4:17845017:17845018:+_ENSG00000109805_ENST00000514176|hu_hu|motif|central (ssRNA)
RNA: GGGAGUUCUACAGUCCGACGAUCCUUUCCUAACUUAGAUCUUCAUUGAGAAAUUGGGCAAGGUUAAGUUUACUUUUUUCGGGUGCUGCGGUUUUGGCUCGUCUUGGUAGUCUCAUCUUCAUUUCUGAUUCUGGUUCUGGAACUCAACAGAGGAUUGAGCAUCA
B10: chr1:155330963:155330964:-_ENSMUSG00000042699_ENSMUST00000042141|perfect_dup|FALSE|FALSE (ssRNA)
RNA: GGGAGUUCUACAGUCCGACGAUCACCUUCCACCUGAACCUCACACAUGAAUUUCUGCCUGUUUUUGUUCCCCACUGCUCUAAUUUCAUAGGAUGGGGUCAUCUUCCUUUUGCCACACCAGGCAUACAGAAAAUUUUUAACGUCCAACAGAGGAUUGAGCAUCA
B11: chr11:126104937:126104938:+_ENSG00000197798_ENST00000360194|hu_hu|motif|central (ssRNA)
RNA: GGGAGUUCUACAGUCCGACGAUCCUUCCUGGGCUUUUUGGUGGGAGGUUCGCCAUCGUUGAAGAAUCCAAAAAUCUCGUCGGUAUCAGAGGCCUGGCUCCCUGUAGAAGCCAUCCAGUUUCGAGUCUCCUCCAAACGCCACUGCAACAGAGGAUUGAGCAUCA
B12: chr14:102349618:102349619:+_ENSG00000078304_ENST00000445439|hu_mus|motif|central (ssRNA)
RNA: GGGAGUUCUACAGUCCGACGAUCUACAAACUUCUGAUCAAUAUAUUUCUUUGCUAUAUUGGGUUGGAAAUCUGGAGACUCGGAAAAUCUUAAGAAAAAUUCAUAAACAAGCUGCAGAUGAGGCCAGGCUGCUUCUAACGUUGGCAACAGAGGAUUGAGCAUCA
B13: 28425430_28425550_7441_3pUTR_ENSG00000104290_ENST00000240093|human|control|control (ssRNA)
RNA: GGGAGUUCUACAGUCCGACGAUCCCACAAUGAAAACCAACAAGUGAAUCACUUUUUCAAAACUUUUUCUCAAUCAGAAAAAAUGAGGUACAUAAAAGCCAAAAAGUCAAAGACAAAAAACAUUAUAGGGUCUACAUUCUUCUUCAACAGAGGAUUGAGCAUCA
B14: chr15:31520727:31520728:-_ENSMUSG00000022234_ENSMUST00000022842|mus_hu|motif|central (ssRNA)
RNA: GGGAGUUCUACAGUCCGACGAUCUCUUCAUUCUUCAGAUUCUCCAGGCUUACGAAUGUCAUCAAUCUUCAAAAUCAUUCGGACCAUUUGUGUUGCAAGAGAUAUCUGUUGCUUUUUGCCAAUCAAGGUUUCUAUGACAUGCUGCAACAGAGGAUUGAGCAUCA

The other results are listed elsewhere or left out.

The experiment concerns the target T1, UNK ZnF1-3 (human, UniProt Q9C0B0 31-174).
T1 sequence: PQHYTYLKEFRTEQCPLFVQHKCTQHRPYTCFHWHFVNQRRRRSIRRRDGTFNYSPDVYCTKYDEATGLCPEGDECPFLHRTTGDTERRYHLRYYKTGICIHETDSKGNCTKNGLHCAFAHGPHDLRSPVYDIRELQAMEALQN
The experiment can be described thus: nsRBNS (natural sequence RNA bind-n-seq); RBNS binding buffer (assumed for nsRBNS): 25 mM Tris pH 7.5, 150 mM KCl, 3 mM MgCl2, 0.01% Triton X-100, 500 ug/ml BSA, 20 U/ml SUPERase-In, 4 C; UNK is unkempt and MSI1 is Musashi-1; names of the RNAs are library labels; protein concentration not given here; high values mean tight binding.
Molecule B1 yielded a binding signal of 0.704 enrichment R. As to B2, the binding signal turned out to be 1.69 enrichment R. As for B3, the figure is 0.655 enrichment R.

B4 showed a binding signal of 0.733 enrichment R. As for B5, the figure is 1.43 enrichment R; as for B6, 0.373 enrichment R.

On to B7, for which the binding signal turned out to be 1.1 enrichment R. Then B8, with 1.46 enrichment R; and B9, with 0.381 enrichment R. As for B10, the figure is 0.84 enrichment R; as for B11, 0.756 enrichment R.

As to B12, the binding signal was 1.86 enrichment R.

B13 gave a binding signal of 1.31 enrichment R.

B14 showed a binding signal of 0.774 enrichment R.

Source of the values: PMC12136788.
